The other results are listed elsewhere or left out.
Tests used:
Assay in all cases: glycan array binding signal (z-score within array); higher = stronger binding
Conditions in all cases: glycan notation: IUPAC condensed, linker removed
[1] = target: Gal(b1-4)Glc6S
How it was run: (§1)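 Arrays were curated from the Consortium for Functional Glycomics database, 3228 in total, and kept only where the protein sequence was available. Binding is expressed as a within-array Z-score. This score was averaged across arrays of the same protein sequence at different concentrations or buffers and across linkers, and negative values can be read as non-binding.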

[2] = target: Gal(b1-4)GlcNAc
How it was run: as §1

[3] = target: Gal(b1-4)GlcNAc(a1-6)Gal(b1-4)GlcNAc
How it was run: as §1

[4] = target: Gal(b1-4)GlcNAc(b1-2)Man
How it was run: as §1

[5] = target: Gal(b1-4)GlcNAc(b1-2)Man(a1-3)Man(b1-4)GlcNAc(b1-4)GlcNAc
How it was run: as §1

[6] = target: Gal(b1-4)GlcNAc(b1-2)Man(a1-3)[Gal(b1-4)GlcNAc(b1-2)Man(a1-6)]Man(b1-4)GlcNAc(b1-4)GlcNAc
How it was run: as §1

[7] = target: Gal(b1-4)GlcNAc(b1-2)Man(a1-3)[Gal(b1-4)GlcNAc(b1-2)Man(a1-6)]Man(b1-4)GlcNAc(b1-4)[Fuc(a1-6)]GlcNAc
How it was run: as §1

[8] = target: Gal(b1-4)GlcNAc(b1-2)Man(a1-3)[Gal(b1-4)GlcNAc(b1-2)Man(a1-6)][Gal(b1-4)GlcNAc(b1-4)]Man(b1-4)GlcNAc(b1-4)[Fuc(a1-6)]GlcNAc
How it was run: as §1

[9] = target: Gal(b1-4)GlcNAc(b1-2)Man(a1-3)[Gal(b1-4)GlcNAc(b1-2)Man(a1-6)][GlcNAc(b1-4)]Man(b1-4)GlcNAc(b1-4)[Fuc(a1-6)]GlcNAc
How it was run: as §1

[10] = target: Gal(b1-4)GlcNAc(b1-2)Man(a1-3)[GlcNAc(b1-2)Man(a1-6)]Man(b1-4)GlcNAc(b1-4)GlcNAc
How it was run: as §1

[11] = target: Gal(b1-4)GlcNAc(b1-2)Man(a1-3)[GlcNAc(b1-4)][Gal(b1-4)GlcNAc(b1-2)Man(a1-6)]Man(b1-4)GlcNAc(b1-4)GlcNAc
How it was run: as §1

[12] = target: Gal(b1-4)GlcNAc(b1-2)Man(a1-3)[Man(a1-6)]Man(b1-4)GlcNAc(b1-4)GlcNAc
How it was run: as §1

[13] = target: Gal(b1-4)GlcNAc(b1-2)Man(a1-6)Man(b1-4)GlcNAc(b1-4)GlcNAc
How it was run: as §1

[14] = target: Gal(b1-4)GlcNAc(b1-2)Man(a1-6)[GlcNAc(b1-2)Man(a1-3)]Man(b1-4)GlcNAc(b1-4)GlcNAc
How it was run: as §1

[15] = target: Gal(b1-4)GlcNAc(b1-2)Man(a1-6)[Man(a1-3)]Man(b1-4)GlcNAc(b1-4)GlcNAc
How it was run: as §1

[16] = target: Gal(b1-4)GlcNAc(b1-2)[Gal(b1-4)GlcNAc(b1-4)]Man(a1-3)[Gal(b1-4)GlcNAc(b1-2)Man(a1-6)]Man(b1-4)GlcNAc(b1-4)GlcNAc
How it was run: as §1

[17] = target: Gal(b1-4)GlcNAc(b1-2)[Gal(b1-4)GlcNAc(b1-4)]Man(a1-3)[Gal(b1-4)GlcNAc(b1-2)[Gal(b1-4)GlcNAc(b1-6)]Man(a1-6)]Man(b1-4)GlcNAc(b1-4)GlcNAc
How it was run: as §1

[18] = target: Gal(b1-4)GlcNAc(b1-2)[Gal(b1-4)GlcNAc(b1-4)]Man(a1-3)[GlcNAc(b1-4)][Gal(b1-4)GlcNAc(b1-2)Man(a1-6)]Man(b1-4)GlcNAc(b1-4)GlcNAc
How it was run: as §1

[19] = target: Gal(b1-4)GlcNAc(b1-2)[Gal(b1-4)GlcNAc(b1-4)]Man(a1-3)[GlcNAc(b1-4)][Gal(b1-4)GlcNAc(b1-2)[Gal(b1-4)GlcNAc(b1-6)]Man(a1-6)]Man(b1-4)GlcNAc(b1-4)GlcNAc
How it was run: as §1

[20] = target: Gal(b1-4)GlcNAc(b1-2)[Gal(b1-4)GlcNAc(b1-6)]Man(a1-6)[Gal(b1-4)GlcNAc(b1-2)Man(a1-3)]Man(b1-4)GlcNAc(b1-4)GlcNAc
How it was run: as §1

[21] = target: Gal(b1-4)GlcNAc(b1-2)[Gal(b1-4)GlcNAc(b1-6)]Man(a1-6)[Gal(b1-4)GlcNAc(b1-2)Man(a1-3)]Man(b1-4)GlcNAc(b1-4)[Fuc(a1-6)]GlcNAc
How it was run: as §1

[22] = target: Gal(b1-4)GlcNAc(b1-2)[Gal(b1-4)GlcNAc(b1-6)]Man(a1-6)[GlcNAc(b1-4)][Gal(b1-4)GlcNAc(b1-2)Man(a1-3)]Man(b1-4)GlcNAc(b1-4)GlcNAc
How it was run: as §1

[23] = target: Gal(b1-4)GlcNAc(b1-2)[Gal(b1-4)GlcNAc(b1-6)]Man(a1-6)[GlcNAc(b1-4)][Gal(b1-4)GlcNAc(b1-2)[Gal(b1-4)GlcNAc(b1-4)]Man(a1-3)]Man(b1-4)GlcNAc(b1-4)[Fuc(a1-6)]GlcNAc
How it was run: as §1

[24] = target: Gal(b1-4)GlcNAc(b1-3)Gal(b1-3)GalNAc
How it was run: as §1

[25] = target: Gal(b1-4)GlcNAc(b1-3)Gal(b1-3)GlcNAc
How it was run: as §1

[26] = target: Gal(b1-4)GlcNAc(b1-3)Gal(b1-4)Glc
How it was run: as §1

[27] = target: Gal(b1-4)GlcNAc(b1-3)Gal(b1-4)GlcNAc
How it was run: as §1

[28] = target: Gal(b1-4)GlcNAc(b1-3)Gal(b1-4)GlcNAc(b1-2)Man(a1-3)[Gal(b1-4)GlcNAc(b1-3)Gal(b1-4)GlcNAc(b1-2)Man(a1-6)]Man(b1-4)GlcNAc(b1-4)GlcNAc
How it was run: as §1

[29] = target: Gal(b1-4)GlcNAc(b1-3)Gal(b1-4)GlcNAc(b1-2)Man(a1-3)[Gal(b1-4)GlcNAc(b1-3)Gal(b1-4)GlcNAc(b1-2)Man(a1-6)]Man(b1-4)GlcNAc(b1-4)[Fuc(a1-6)]GlcNAc
How it was run: as §1

[30] = target: Gal(b1-4)GlcNAc(b1-3)Gal(b1-4)GlcNAc(b1-2)[Gal(b1-4)GlcNAc(b1-3)Gal(b1-4)GlcNAc(b1-6)]Man(a1-6)[Gal(b1-4)GlcNAc(b1-3)Gal(b1-4)GlcNAc(b1-2)Man(a1-3)]Man(b1-4)GlcNAc(b1-4)GlcNAc
How it was run: as §1

[31] = target: Gal(b1-4)GlcNAc(b1-3)Gal(b1-4)GlcNAc(b1-2)[Gal(b1-4)GlcNAc(b1-3)Gal(b1-4)GlcNAc(b1-6)]Man(a1-6)[Gal(b1-4)GlcNAc(b1-3)Gal(b1-4)GlcNAc(b1-2)Man(a1-3)]Man(b1-4)GlcNAc(b1-4)[Fuc(a1-6)]GlcNAc
How it was run: as §1

[32] = target: Gal(b1-4)GlcNAc(b1-3)Gal(b1-4)GlcNAc(b1-3)Gal(b1-4)GlcNAc
How it was run: as §1

[33] = target: Gal(b1-4)GlcNAc(b1-3)Gal(b1-4)GlcNAc(b1-3)Gal(b1-4)GlcNAc(b1-2)Man(a1-3)[Gal(b1-4)GlcNAc(b1-3)Gal(b1-4)GlcNAc(b1-3)Gal(b1-4)GlcNAc(b1-2)Man(a1-6)]Man(b1-4)GlcNAc(b1-4)GlcNAc
How it was run: as §1

[34] = target: Gal(b1-4)GlcNAc(b1-3)Gal(b1-4)GlcNAc(b1-3)Gal(b1-4)GlcNAc(b1-2)Man(a1-3)[Gal(b1-4)GlcNAc(b1-3)Gal(b1-4)GlcNAc(b1-3)Gal(b1-4)GlcNAc(b1-2)Man(a1-6)]Man(b1-4)GlcNAc(b1-4)[Fuc(a1-6)]GlcNAc
How it was run: as §1

[35] = target: Gal(b1-4)GlcNAc(b1-3)Gal(b1-4)GlcNAc(b1-3)Gal(b1-4)GlcNAc(b1-2)[Gal(b1-4)GlcNAc(b1-3)Gal(b1-4)GlcNAc(b1-3)Gal(b1-4)GlcNAc(b1-6)]Man(a1-6)[Gal(b1-4)GlcNAc(b1-3)Gal(b1-4)GlcNAc(b1-3)Gal(b1-4)GlcNAc(b1-2)Man(a1-3)]Man(b1-4)GlcNAc(b1-4)[Fuc(a1-6)]GlcNAc
How it was run: as §1

[36] = target: Gal(b1-4)GlcNAc(b1-3)Gal(b1-4)GlcNAc(b1-3)Gal(b1-4)GlcNAc(b1-3)Gal(b1-4)GlcNAc(b1-2)Man(a1-3)[Gal(b1-4)GlcNAc(b1-3)Gal(b1-4)GlcNAc(b1-3)Gal(b1-4)GlcNAc(b1-3)Gal(b1-4)GlcNAc(b1-2)Man(a1-6)]Man(b1-4)GlcNAc(b1-4)GlcNAc
How it was run: as §1

[37] = target: Gal(b1-4)GlcNAc(b1-3)Gal(b1-4)GlcNAc(b1-3)Gal(b1-4)GlcNAc(b1-3)Gal(b1-4)GlcNAc(b1-2)Man(a1-3)[Gal(b1-4)GlcNAc(b1-3)Gal(b1-4)GlcNAc(b1-3)Gal(b1-4)GlcNAc(b1-3)Gal(b1-4)GlcNAc(b1-2)Man(a1-6)]Man(b1-4)GlcNAc(b1-4)[Fuc(a1-6)]GlcNAc
How it was run: as §1

[38] = target: Gal(b1-4)GlcNAc(b1-3)Gal(b1-4)GlcNAc(b1-3)Gal(b1-4)GlcNAc(b1-3)Gal(b1-4)GlcNAc(b1-2)[Gal(b1-4)GlcNAc(b1-3)Gal(b1-4)GlcNAc(b1-3)Gal(b1-4)GlcNAc(b1-3)Gal(b1-4)GlcNAc(b1-6)]Man(a1-6)[Gal(b1-4)GlcNAc(b1-3)Gal(b1-4)GlcNAc(b1-3)Gal(b1-4)GlcNAc(b1-3)Gal(b1-4)GlcNAc(b1-2)Man(a1-3)]Man(b1-4)GlcNAc(b1-4)[Fuc(a1-6)]GlcNAc
How it was run: as §1

B1: MAA (Maackia amurensis), P0DKL3 (protein)
chain: MATSNSKPTQVLLATFLTFFFLLLNNVNSSDELSFTINNFVPNEADLLFQGEASVSSTGVLQLTRVENGQPQKYSVGRALYAAPVRIWDNTTGSVASFSTSFTFVVKAPNPDITSDGLAFYLAPPDSQIPSGSVSKYLGLFNNSNSDSSNQIVAVELDTYFAHSYDPWDPNYRHIGIDVNGIESIKTVQWDWINGGVAFATITYLAPNKTLIASLVYPSNQTTFSVAASVDLKEILPEWVRVGFSAATGYPTEVETHDVLSWSFTSTLEANCDAATENNVHIARYTA
- glycan array binding signal (z-score) [1]: 0.402
- glycan array binding signal (z-score) [2]: -0.22
- glycan array binding signal (z-score) [3]: -0.212
- glycan array binding signal (z-score) [4]: -0.24
- glycan array binding signal (z-score) [5]: -0.232
- glycan array binding signal (z-score) [6]: -0.204
- glycan array binding signal (z-score) [7]: -0.248
- glycan array binding signal (z-score) [8]: -0.243
- glycan array binding signal (z-score) [9]: -0.262
- glycan array binding signal (z-score) [10]: -0.23
- glycan array binding signal (z-score) [11]: -0.175
- glycan array binding signal (z-score) [12]: -0.206
- glycan array binding signal (z-score) [13]: -0.229
- glycan array binding signal (z-score) [14]: -0.226
- glycan array binding signal (z-score) [15]: -0.138
- glycan array binding signal (z-score) [16]: -0.036
- glycan array binding signal (z-score) [17]: -0.205
- glycan array binding signal (z-score) [18]: -0.28
- glycan array binding signal (z-score) [19]: -0.198
- glycan array binding signal (z-score) [20]: -0.196
- glycan array binding signal (z-score) [21]: -0.234
- glycan array binding signal (z-score) [22]: -0.256
- glycan array binding signal (z-score) [23]: -0.264
- glycan array binding signal (z-score) [24]: -0.13
- glycan array binding signal (z-score) [25]: -0.168
- glycan array binding signal (z-score) [26]: -0.155
- glycan array binding signal (z-score) [27]: -0.214
- glycan array binding signal (z-score) [28]: 0.162
- glycan array binding signal (z-score) [29]: 0.122
- glycan array binding signal (z-score) [30]: -0.248
- glycan array binding signal (z-score) [31]: 0.622
- glycan array binding signal (z-score) [32]: -0.194
- glycan array binding signal (z-score) [33]: 0.77
- glycan array binding signal (z-score) [34]: 0.347
- glycan array binding signal (z-score) [35]: 0.984
- glycan array binding signal (z-score) [36]: 0.231
- glycan array binding signal (z-score) [37]: 0.289
- glycan array binding signal (z-score) [38]: 0.749
